This is an account of results in publication PMC12136788.

The list shows a part of the results.

Sequences and labels used below:
T1: UNK ZnF1-3 (human, UniProt Q9C0B0 31-174)
T1 sequence: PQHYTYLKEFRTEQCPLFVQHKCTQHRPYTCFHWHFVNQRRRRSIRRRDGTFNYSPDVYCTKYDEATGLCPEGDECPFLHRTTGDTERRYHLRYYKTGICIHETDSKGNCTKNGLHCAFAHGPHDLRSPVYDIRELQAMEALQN

B1: chr10:116622694:116622695:+_ENSG00000151553_ENST00000369248|hu_hu|FALSE|FALSE (ssRNA)
RNA: GGGAGUUCUACAGUCCGACGAUCAAUAAACCAGAAAAGCUAACACAACAAAAUGAGCAGAUAGGUGUAAAACAAGCCUCUAUGCACAUGCCACACAAUGCGUAUAUGCAAACAUGCUACAUAAAAUAACUUCCUAGAGGGGGUCAACAGAGGAUUGAGCAUCA
B2: 29370372_29377329_3663_CDS_ENSMUSG00000032740_ENSMUST00000040182|mouse|control|control (ssRNA)
RNA: GGGAGUUCUACAGUCCGACGAUCUUGUCUCUGUUUGAGAGCUUCAUAAUUUUUUUUCACUGUUUUAAGUUCGUGGCGCAAUUGCUGAUUGUAAUUUGUAGAUUCUUCUAACCGAGCUUCUAAAGCAGCAAUUUUUUCUUCUUUCAACAGAGGAUUGAGCAUCA
B3: chr1:109605286:109605287:-_ENSG00000197780_ENST00000461096|hu_mus|hu_hu_hu_mus_True|18_68 (ssRNA)
RNA: GGGAGUUCUACAGUCCGACGAUCAAGUUUCAGAGUAACAUUCAGUAACCUCUUUAAAUGCAAUUAUCCUUACUUUAAGCUAAGCAGAAUAAUAAUUUAAUACCGUAAGUGAACUACCACAAAACCUUGAACCGCGAAAAUGGUCAACAGAGGAUUGAGCAUCA
B4: 47058699_47059202_7561_CDS_ENSG00000181555_ENST00000409792|human|control|control (ssRNA)
RNA: GGGAGUUCUACAGUCCGACGAUCAUUCUUACAGUACUUCAGCUCCUUAUUCAUAACACCGUGAGUCAGCUUGCGAGCCAGAUGUUUAAAGUCUUCAGUUGUGGUAAUUCUUCCCACUUUGCAGUCAGGUUUCCGGUAAGGGUUCAACAGAGGAUUGAGCAUCA
B5: chr5:37680062:37680063:+_ENSMUSG00000029121_ENSMUST00000031004|mus_mus|FALSE|FALSE (ssRNA)
RNA: GGGAGUUCUACAGUCCGACGAUCUUUGGGUGUAGCUGGCACCUCGUACACAGGCCCAUCGUACAUGCCCCUGGAAACACUAUGCAACCCGAAAACCUUGCUUCUGAUCCUGACACGCUGGUAGAGAUGCUCUGGGAAUGGCUUCAACAGAGGAUUGAGCAUCA
B6: chr4:17845017:17845018:+_ENSG00000109805_ENST00000514176|hu_mus|hu_hu_hu_mus_False|58_68 (ssRNA)
RNA: GGGAGUUCUACAGUCCGACGAUCGCUCUCUUAACUUGUAUCUUCAUUAAGGAACUCUGCAAGGUUAGUUUACUUUUUUCUAGUGCUAGCUGUUUUGGCUCGUCUGGGUAAUCUCAUCUUCAUUUCUGAUGGUGGUUCAUGAUCCAACAGAGGAUUGAGCAUCA

The assay addresses T1, UNK ZnF1-3. Nature of the assay: nsRBNS (natural sequence RNA bind-n-seq); RBNS binding buffer (assumed for nsRBNS): 25 mM Tris pH 7.5, 150 mM KCl, 3 mM MgCl2, 0.01% Triton X-100, 500 ug/ml BSA, 20 U/ml SUPERase-In, 4 C; UNK is unkempt and MSI1 is Musashi-1; names of the RNAs are library labels; protein concentration not given here; high values mean tight binding.
For B1, the binding signal stood at 1.1 enrichment R.
Molecule B2 gave a binding signal of 0.378 enrichment R.
For B3 the value was 0.721 enrichment R; for B4, 0.759 enrichment R; for B5, 0.957 enrichment R.
For B6 the value was 0.336 enrichment R.
